Test results: PubChem BioAssay AID686979 (National Center for Advancing Translational Sciences (NCATS), 2013)
Out of some 420,000 compounds screened, about 50,000 (12%) were called active. The shares of active, inactive and inconclusive entries below differ from those in the screen. The call rests on the fitted dose curve; in most records, active means well fitted inhibition curve with a large enough effect; inconclusive means small, poorly fitted or top-dose-only effect; inactive means flat fitted curve, though single readings scatter. No potency is given beside an inconclusive call; the fits are too rough.

assay: qHTS for Inhibitors of human tyrosyl-DNA phosphodiesterase 1 (TDP1): qHTS in cells in presence of CPT; conditions: chicken DT40 Tdp1-/-;hTDP1 cells + 20 nM CPT, ATP luminescence, 48 h; activity change, negative = growth inhibition: at 46.2 µM (top of the series); further: nearly all actives have a fitted effect of over 55% in size
Summary of the method: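 Cell growth measured by CellTiter-Glo luminescence after a minimum 48 h, 37 C compound exposure with 20 nM CPT in Tdp1-knockout DT40 cells stably expressing hTDP1, seeded 400/well; qHTS titration format.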
On the % scale 0 is the no-effect control and ±100 the full control effect; potency means the concentration at half of the fitted maximal effect; tags describe the fitted curve by direction and shape.

Row | SMILES | Potency | activity change, negative = growth inhibition
1 | C/C(=N\NC(=O)c1cc(-c2ccco2)nc2ccccc12)c1cccnc1 | inconclusive [inhibitor, single point] | –
2 | CCOC(=O)[C@]12CCC=C1N(Cc1ccc(Cl)cc1Cl)C(=O)[C@H](CC(=O)NCc1cccc(C(F)(F)F)c1)C2 | inconclusive [inhibitor, single point] | –
3 | CCCCn1c(N)c(N(CCC(C)C)C(=O)COC(=O)c2ccc(CC)cc2)c(=O)[nH]c1=O | – | inactive: -20.8%
4 | C=Cc1ccc2c(c1)N(C)C(=C)S2 | active: 16.4 µM | –
5 | Cn1c(NCc2ccccc2F)nc2ccccc21 | – | inactive: -25.3%
6 | O=C(NNC(=O)C1C2CCCCC21)c1coc(=O)c(Br)c1 (stereo not drawn) | active: 4.11 µM | –
7 | COc1cc(Cl)c(C)cc1NC(=O)CSCc1nc(-c2ccc(OC)c(OC)c2)no1 | active: 20.6 µM | –
8 | COC(=O)CN1C(=O)C(O)(CC(=O)c2ccc(Br)cc2)c2ccccc21 (stereo not drawn) | inconclusive [inhibitor, single point] | –
9 | Cc1ccccc1NS(=O)(=O)c1cc(C(=O)Nc2cccc([N+](=O)[O-])c2)ccc1C | inconclusive [inhibitor, single point] | –
10 | Cc1ccc(NC(=O)N2CCC(c3nc4c(nnn4Cc4c(F)cccc4Cl)c(=O)[nH]3)CC2)cc1 | – | inconclusive: -30.8% [inhibitor]
11 | O=C(CCNc1ccccc1)c1cccc([N+](=O)[O-])c1 | active: 18.4 µM | –
12 | Cn1c2ccccc2c(=O)c2ccc(NCc3ccc4c(c3)OCO4)cc21 | active: 23.1 µM | –
13 | Cc1ccsc1/C=C/c1ccc2ccccc2n1 | – | inconclusive: -33.3% [inhibitor]
14 | CC(C)(C)c1ccc(C(=O)NC(=S)Nc2nc3c(s2)CCCC3)cc1 | active: 25.9 µM | –
15 | O=[N+]([O-])c1ccc(CS(=O)(=O)c2ccc(Cl)cc2)cc1 | inconclusive [inhibitor, partial curve] | –
16 | Cc1ncc(CO)c(/C=N/NC(=S)Nc2ccc(F)cc2)c1O | active: 16.4 µM | –
17 | N#Cc1ccc(C(=O)Nc2nc(-c3cccs3)c(C(=O)C(F)(F)F)s2)cc1 | active: 1.64 µM | –
18 | Cc1cccc(C)c1NC(=O)C1CCN(S(=O)(=O)c2cccc3nsnc23)CC1 | inconclusive [inhibitor, partial curve] | –
19 | N=c1n(CCO)c2ccccc2n1CCOc1ccc(F)cc1 | active: 20.6 µM | –
20 | COc1ccc(OC)c(Nc2cc(C(=O)NCc3ccccc3)c3ccccc3n2)c1 | inconclusive [inhibitor, full curve] | –
21 | COc1ccc(NC(=O)N2CCCC3(CCN(C(=O)c4ccc(OC)cc4)CC3)C2)cc1 | – | inactive: 4.17%
22 | CC(C)C(NC(=O)c1ccccc1)C(=O)NC1CCCc2ccccc21 (stereo not drawn) | – | inactive: -23%
23 | CCC(c1nnnn1-c1c(C)cccc1C)N1CCN(c2cccc(C(F)(F)F)n2)CC1 (stereo not drawn) | inconclusive [inhibitor, single point] | –
24 | O=C(Nc1cccc(-c2csc(Nc3cccc(C(F)(F)F)c3)n2)c1)c1ccccc1 | inconclusive [inhibitor, single point] | –

Row | SMILES | Potency | activity change, negative = growth inhibition
25 | CCN(C(=O)CSc1nnc(-c2ccccc2Cl)n1N)c1c(N)n(Cc2ccccc2)c(=O)[nH]c1=O | – | inactive: 17.4%
26 | Cc1ccc(C(O)CN2C3=NCCN3c3ccccc32)cc1 (stereo not drawn) | active: 23.1 µM | –
27 | CC(OC(=O)c1ccc([N+](=O)[O-])o1)C(=O)Nc1nc(-c2ccc(F)c(F)c2)cs1 (stereo not drawn) | active: 20.6 µM | –
28 | COC(=O)[C@]1(C)N[C@H](CN(C)C(=O)c2ccc(C(C)(C)C)cc2)[C@@H]2C(=O)N(Cc3ccccc3)C(=O)[C@@H]21 | inconclusive [inhibitor, partial curve] | –
29 | COc1ccc(-c2nc(SCC(=O)NC3CCCC3)c(-c3ccccc3)[nH]2)cc1OC | inconclusive [inhibitor, single point] | –
30 | CCN(CCCNC(=O)C1CCC(=O)N1Cc1ccccc1Cl)c1cccc(C)c1 (stereo not drawn) | active: 16.4 µM | –
31 | O=C(Nc1ccc(Cn2cccn2)cc1)c1ccc(COc2cccc(Br)c2)cc1 | – | inactive: -23.9%
32 | CCOC(=O)C1CCN(C(=O)c2ccc3c(c2)sc2nc(-c4ccc(OCC)cc4)cn23)CC1 | active: 7.31 µM | –
33 | CCc1ccc(N2CC(C(=O)Nc3cc(C)on3)CC2=O)cc1 (stereo not drawn) | – | inactive: -5.57%
34 | O=C(NCc1cccc(Cl)c1)c1cccc(C(F)(F)F)c1 | inconclusive [inhibitor, single point] | –
35 | CC1=C(C#N)C(C(F)(F)F)(C(F)(F)F)N=C(c2ccco2)N1 | inconclusive [inhibitor, single point] | –
36 | CC(NC(=O)c1ccccc1Cl)C1COc2ccccc2O1 (stereo not drawn) | – | inconclusive: -30.3% [inhibitor]
37 | COc1ccc(CNC(=O)c2cnn(-c3ccc(C)cc3)c2C2CCN(C(=O)OC(C)(C)C)CC2)cc1 | active: 9.2 µM | –
38 | COC(=O)c1ccc(C(=O)Nc2cc(Cl)ccc2Cl)cc1NC(=O)c1ccc(N(C)C)cc1 | active: 25.9 µM | –
39 | CCN1CCN(S(=O)(=O)c2ccc(C)c([N+](=O)[O-])c2)CC1 | – | inactive: 1.98%
40 | COc1ccc(-c2cn(-c3ccc(C)cc3C)c(=O)[nH]2)cc1OC | active: 14.6 µM | –
41 | Cc1ccc(NC(=S)NCCc2ccc(Cl)cc2)c(C)c1 | inconclusive [inhibitor, single point] | –
42 | O=C(c1ccccc1)N(Cc1nc2ccccc2c(=O)[nH]1)C1CCCCC1 | inconclusive [inhibitor, single point] | –
43 | Cc1ccc(C(=O)NC(=S)NCCN2CCOCC2)cc1 | – | inactive: -5.93%
44 | CCOc1ccccc1C(=O)N1CCc2cc(OC)c(OC)cc2C1COc1ccc2c(C)cc(=O)oc2c1 (stereo not drawn) | inconclusive [inhibitor, single point] | –
45 | Cc1ccc(-n2ncc3c(Nc4ccc5c(c4)OCCO5)ncnc32)cc1C | active: 20.6 µM | –
46 | CSC1=C(C#N)C(c2ccccc2Cl)C2=C(N1)c1ccccc1C2=O (stereo not drawn) | active: 23.1 µM | –
47 | CCc1cc(C(=O)N(CC(C)C)c2c(N)n(Cc3ccccc3)c(=O)[nH]c2=O)sc1C | – | inactive: -16%
48 | CCc1c(C)nc2cc(-c3cc(OC)cc(OC)c3)nn2c1N1CCN(CCN2CCOCC2)CC1 | active: 23.1 µM | –
